This passage reports binding signal results from PMC12136788.

The list shows a part of the results.

Sequences and labels used below:
T1: UNK ZnF1-3 (human, UniProt Q9C0B0 31-174)
T1 sequence: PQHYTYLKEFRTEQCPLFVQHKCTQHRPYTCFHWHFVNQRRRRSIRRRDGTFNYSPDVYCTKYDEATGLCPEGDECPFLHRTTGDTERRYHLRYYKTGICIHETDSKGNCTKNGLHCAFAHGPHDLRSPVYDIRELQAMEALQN

B1: 112958320_112958440_639_3pUTR_ENSMUSG00000030879_ENSMUST00000124482|mouse|control|control (ssRNA)
RNA: GGGAGUUCUACAGUCCGACGAUCAAGACCCACGAACACGGGCACCACACCUAUGCACCACUCUCCAGCUCCAGUUAAGUCUUUGGUGUUUGAACUGUACAGGAGCUGUGGAGGCUUGCGUCCUGGUUAUGGUGCAGGUCCUGCCAACAGAGGAUUGAGCAUCA
B2: 83500210_83500330_104_ncRNA_ENSMUSG00000027091_ENSMUST00000134789|mouse|control|control (ssRNA)
RNA: GGGAGUUCUACAGUCCGACGAUCAGCACAAAUCCAGGAGGAAGUGCAUGGCGAUACAUGCAGUUGUCCCCACCUCCAGGACACACCCAAAACCAGCCAUACUUGUUAUUUUCAAUAGCUUCAAGAAAAUGUCUGCACACCUAUCAACAGAGGAUUGAGCAUCA
B3: chr1:243289802:243289803:-_ENSG00000143702_ENST00000366542|hu_hu|FALSE|FALSE (ssRNA)
RNA: GGGAGUUCUACAGUCCGACGAUCAAGAGAAAGUCAUUCUUGUACUGUAACAUCUUCCUCUUCCCCAUCGGGGUUGAAUCUAUUGAAAUGUAUACUGAAAUCAGCCUCAGAUUCAGCAUUCUCAAAUUCAGCUGCGGCUGAAACCAACAGAGGAUUGAGCAUCA
B4: chr13:41657021:41657022:+_ENSG00000120688_ENST00000379487|hu_hu|FALSE|FALSE (ssRNA)
RNA: GGGAGUUCUACAGUCCGACGAUCGGUGUAUAAGUCUCCAUUCUGUCCUAAAAGCAUGUACAAAAAGCUCUCCUGCAACUAUUGAUCAUCACCUCGUUGCCUUAAAUUUCUAGAUUUUCCAUUUUCAGUUCUUCUCUUUUUGAACAACAGAGGAUUGAGCAUCA
B5: chr2:48026839:48026840:+_ENSG00000116062_ENST00000540021|hu_hu|hu_hu_hu_mus_False|28_68 (ssRNA)
RNA: GGGAGUUCUACAGUCCGACGAUCAUAGUGAGCCACUAGCGUCCUAAAUCUGGAACAGUGGCGGUCAUCUGAAAACUGGCCGAUGAAAAACUUGCCCAGUGAAGUGUCAACAAAGCAAACACCAUACACACGAGUGUGACCAGACAACAGAGGAUUGAGCAUCA
B6: chr15:102110757:102110758:+_ENSMUSG00000045665_ENSMUST00000051341|mus_mus|FALSE|FALSE (ssRNA)
RNA: GGGAGUUCUACAGUCCGACGAUCGUAGGGAGCUUGGAGCCAGUCCGCUGCCAGGGCCAGAAAGUAGACUUGAUAGAAGUCUAGUUGAAACUGAAGGAAGGAGGGGUUGCUGCAAGCUCUUCCAGGGGGCCUGGCUCUGCAUCUCAACAGAGGAUUGAGCAUCA
B7: chr20:61576232:61576233:+_ENSG00000101193_ENST00000266069|hu_mus|FALSE|FALSE (ssRNA)
RNA: GGGAGUUCUACAGUCCGACGAUCCAGUGCUGGGUCCAUGCACAGGCUCUACUUGGGCUCCUCAAUCACACCUUUGCUGAGGUCUGUCAUUUUGGGAUAUUUUACUUUCUUCUGGUCUAGCUCAUUCUGAGCCCAAAGUAGCAGCAACAGAGGAUUGAGCAUCA
B8: chr8:67243003:67243004:-_ENSMUSG00000031605_ENSMUST00000034017|mus_hu|FALSE|FALSE (ssRNA)
RNA: GGGAGUUCUACAGUCCGACGAUCGUCACUUGAGAUUAAGCUGCACACUUGUUCGAUGCCAAGAUUGAGAAAUUCUUCACUAAGUACAACAUCUGCAAAAUGUUGCUCUGCAUAGGUGUUGGCCUUGUUCAGAAGGUCGGUACACAACAGAGGAUUGAGCAUCA
B9: chr4:148551591:148551592:-_ENSMUSG00000063077_ENSMUST00000060537|mus_hu|mus_mus_mus_hu_False|78_108 (ssRNA)
RNA: GGGAGUUCUACAGUCCGACGAUCACCUUACAAAAUUAAAUAUCCCUGUAAAUUAGACAAGAAGCAGCAGGCAACAAAGUCUUUGCUUUGGAAUAUGUGCCAGGAAAAGUCAUCUUGUUUUUAGAUCUCAAGAGACAGUUCACACAACAGAGGAUUGAGCAUCA
B10: chr5:52541547:52541548:-_ENSMUSG00000029169_ENSMUST00000031061|mus_mus|FALSE|FALSE (ssRNA)
RNA: GGGAGUUCUACAGUCCGACGAUCUAUGGAGACAGAAGAUUGUGUCUACAGAAGCACAAGUUGUAACAUUUCACAACUUCUAAAAGGAAUGUCAACAAUUACAACGAUCAUGCAUACCAUGGUCGAUAAUCACAUUUUAGAAGCCAACAGAGGAUUGAGCAUCA
B11: chrX:148277548:148277549:+_ENSMUSG00000025261_ENSMUST00000112622|mus_hu|motif|central (ssRNA)
RNA: GGGAGUUCUACAGUCCGACGAUCGAGGACUGCCAGCACCACUUGCAUAUCAGAGGAAGCCAAUAAAGUUGUCAAAUGCUCGGUGGAACUGUACAGAUGCCGGGAAAAGCUGUACUCAAUGAGCAAGGCUGUGAAGUUCAACACCAACAGAGGAUUGAGCAUCA
B12: chr8:27252840:27252841:+_ENSMUSG00000013878_ENSMUST00000014022|mus_hu|FALSE|FALSE (ssRNA)
RNA: GGGAGUUCUACAGUCCGACGAUCAGCAACGCCAGCUGAAGUGAGUAAGAUCUCCCAGUACCAUGUGGUACUGAGUCUUCUCAGAUACAUUCACUUGUUUGGCUCAAGACAUGAAUCUGAGCUGUGUGCUGCCAUCCUGAGACACAACAGAGGAUUGAGCAUCA
B13: chr14:78183846:78183847:+_ENSG00000119705_ENST00000557342|hu_hu|hu_hu_hu_mus_False|8_18 (ssRNA)
RNA: GGGAGUUCUACAGUCCGACGAUCUCUCAGAAAUCUUUCUUCAUCAGAUGUUUGAGCUCCGUGCAAAGCCUUUGCUCUUUGAGCUUGAACGUGGAUCUAUGGGAGGGAAAGCACUGUAUUUUCCUGUUGUAGUGCAUUUAAAGACAACAGAGGAUUGAGCAUCA
B14: 35858934_35859054_2102_3pUTR_ENSG00000108100_ENST00000265375|human|control|control (ssRNA)
RNA: GGGAGUUCUACAGUCCGACGAUCAAGGAGAGGAAUGGAUUAGGCAGGGGUACAAAGAAAUGGCUCCUACUCGGUAGUUCCAGGCACAUGCCCAGCACUCUGCAGAACUCUCACAGGGACACCCUCUGCUGCACCGUGUCCUUCCAACAGAGGAUUGAGCAUCA
B15: chr1:60041781:60041782:+_ENSMUSG00000041040_ENSMUST00000036540|mus_hu|mus_mus_mus_hu_False|58_58 (ssRNA)
RNA: GGGAGUUCUACAGUCCGACGAUCAAGUUUACAAUAGUAAAGUAAAUGCAGUAGUGGCAAAUUUUCUUUUAUUUUCCUUCCUAAAAGAAAAUCUUUAUAACCCAGUCCUAGUCUUGGACAUAGUGAAAGCUAUAAAUUCUGACUCAACAGAGGAUUGAGCAUCA
B16: chr4:129011843:129011844:-_ENSMUSG00000057236_ENSMUST00000102598|mus_mus|FALSE|FALSE (ssRNA)
RNA: GGGAGUUCUACAGUCCGACGAUCGGCAUGGGUCAUCACCAAAUCAUAAAGAAAAGGGGUGUUCUUCUUCCAUAUUUUGUACUCCUCGUUGAUCACCCGUUCUUCCACUGCGUCGUCAAAGGCCGCUUCCUUGUCAGCCAUGGCCAACAGAGGAUUGAGCAUCA
B17: chr7:109302599:109302600:-_ENSMUSG00000063550_ENSMUST00000070165|mus_hu|motif|central (ssRNA)
RNA: GGGAGUUCUACAGUCCGACGAUCGGAAUCUUCAUCUCCAUCCUGCUGGUGAUUCUCAUCAACAGGUUUGCUUAGGAAACGGAAUCUCUCUCCAUUUUCUGGAUAUUCAGAUGGUGAAGCUAGAUUUUCUGAAUCACGAUUAACCAACAGAGGAUUGAGCAUCA
B18: chr11:23187360:23187361:+_ENSMUSG00000020290_ENSMUST00000020538|mus_mus|FALSE|FALSE (ssRNA)
RNA: GGGAGUUCUACAGUCCGACGAUCGCUCACCCAACCAGAUAUUAACUUUAAAGUUUCCCUUUUUACUGUCCGCAUACUUCUAAUCAAUGGUUGCUUUGUAACCAUCUCACCAUUAGCUUGAAUAGCUGCAGAAAUAUUUUCACUCAACAGAGGAUUGAGCAUCA
B19: chr3:10015032:10015033:+_ENSMUSG00000027533_ENSMUST00000029046|mus_mus|mus_mus_mus_hu_True|8_58 (ssRNA)
RNA: GGGAGUUCUACAGUCCGACGAUCGUUUUUACCAUCACAAGUGAUGAUACAAUCUGGCUUGGCCAUUGCGCCCAUUUUCCUAAGAGCUAUUCCCACUCCUAGCUCCUUCAUGUAUUCAUCAAAGCCUUGGCUUUCCACCAGGCGCAACAGAGGAUUGAGCAUCA
B20: chr3:41266445:41266446:+_ENSG00000168036_ENST00000349496|perfect_dup|motif|central (ssRNA)
RNA: GGGAGUUCUACAGUCCGACGAUCCAUAGCAGCUCGUACCCUCUGAGCUCGAGUCAUUGCAUACUGUCCAUCAAUAUCAGCGGCUUGUUCUUGAGUGAAGGACUGAGAAAAUCCCUGUUCCCACUCAUACAGGACUUGGGAGGUCAACAGAGGAUUGAGCAUCA
B21: chr7:140881322:140881323:-_ENSMUSG00000030979_ENSMUST00000135760|mus_mus|FALSE|FALSE (ssRNA)
RNA: GGGAGUUCUACAGUCCGACGAUCUAAUCUGGUCAAAGCUGCUGCCAGAUAACGCCUGAAUAUACUCGAGGCUGUAUUUAAGGCCGGAGGGACUGAAAAACGUGAUGCUGGCUGGGAUACCCUGAUCUUCAUAGUAGCUCUUCACAACAGAGGAUUGAGCAUCA
B22: 128445656_128448168_5465_CDS_ENSMUSG00000014355_ENSMUST00000014499|mouse|control|control (ssRNA)
RNA: GGGAGUUCUACAGUCCGACGAUCGAAAUAUUCAGCAAAUGACAGAAGUGCUGGAUCAGAAGUGAAUGAUGAAAUUGUUUCAGGCUUGAAAGCCCGGGCUUCAGAGUUCCUAUUAGCAACAGUUUGUGCCAACAAACUCUGCCACAACAGAGGAUUGAGCAUCA

The assay addresses T1, UNK ZnF1-3. The assay is described as follows: nsRBNS (natural sequence RNA bind-n-seq); RBNS binding buffer (assumed for nsRBNS): 25 mM Tris pH 7.5, 150 mM KCl, 3 mM MgCl2, 0.01% Triton X-100, 500 ug/ml BSA, 20 U/ml SUPERase-In, 4 C; UNK is unkempt and MSI1 is Musashi-1; names of the RNAs are library labels; protein concentration not given here; high values mean tight binding.
Take B1: the binding signal worked out at 0.612 enrichment R. On to B2, for which the binding signal worked out at 1.84 enrichment R. Turning to B3, the binding signal was 0.519 enrichment R.

Turning to B4, the binding signal stood at 1.1 enrichment R. In the case of B5 it was 1.41 enrichment R. In the case of B6 it was 0.621 enrichment R; in that of B7, 0.641 enrichment R; in that of B8, 0.728 enrichment R. Regarding B9, the binding signal came to 1.38 enrichment R. The value for B10 was 1.14 enrichment R; that for B11 was 1.69 enrichment R.

B12 showed a binding signal of 0.739 enrichment R.

B13 came in with a binding signal of 1.09 enrichment R. B14 returned a binding signal of 1.63 enrichment R.

B15 yielded a binding signal of 0.754 enrichment R. The value for B16 was 0.786 enrichment R; that for B17 was 0.444 enrichment R.

Molecule B18 showed a binding signal of 0.777 enrichment R. Molecule B19 registered a binding signal of 0.54 enrichment R. B20 came in with a binding signal of 0.485 enrichment R. In turn, B21 gave a binding signal of 1.22 enrichment R. Molecule B22 showed a binding signal of 1.04 enrichment R.
